Data from the supplement of paper PMC3334620.
Whole data set: some 33,000 sequences, median “E-score (-0.5 to 0.5)” near -0.053, cut for the highest 2% near 0.37. Some of the results follow.

target: Hap1 (UniProt P0CE41); experiment: PBM E-score (8-mer binding enrichment) (E-score (-0.5 to 0.5)); higher = stronger / more preferred TF binding; most listed sequences are background and not binding sites; conditions: protein concentration: 200 nM; construct: GST-DNA-binding domain
Outline: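 Using PURExpress in vitro transcription/translation, GST-tagged yeast transcription factors were made in full-length or DNA-binding-domain form. These were applied at about 100-200 nM to double-stranded universal all-10-mer Agilent arrays, and bound protein was detected with fluorescent anti-GST. Scans were normalised with masliner before the Universal PBM Analysis Suite assigned E-scores to ungapped eight-base words pooled with their reverse complements.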

Chain of UniProt P0CE41 (P0CE41 whole entry, the tested form may be a part): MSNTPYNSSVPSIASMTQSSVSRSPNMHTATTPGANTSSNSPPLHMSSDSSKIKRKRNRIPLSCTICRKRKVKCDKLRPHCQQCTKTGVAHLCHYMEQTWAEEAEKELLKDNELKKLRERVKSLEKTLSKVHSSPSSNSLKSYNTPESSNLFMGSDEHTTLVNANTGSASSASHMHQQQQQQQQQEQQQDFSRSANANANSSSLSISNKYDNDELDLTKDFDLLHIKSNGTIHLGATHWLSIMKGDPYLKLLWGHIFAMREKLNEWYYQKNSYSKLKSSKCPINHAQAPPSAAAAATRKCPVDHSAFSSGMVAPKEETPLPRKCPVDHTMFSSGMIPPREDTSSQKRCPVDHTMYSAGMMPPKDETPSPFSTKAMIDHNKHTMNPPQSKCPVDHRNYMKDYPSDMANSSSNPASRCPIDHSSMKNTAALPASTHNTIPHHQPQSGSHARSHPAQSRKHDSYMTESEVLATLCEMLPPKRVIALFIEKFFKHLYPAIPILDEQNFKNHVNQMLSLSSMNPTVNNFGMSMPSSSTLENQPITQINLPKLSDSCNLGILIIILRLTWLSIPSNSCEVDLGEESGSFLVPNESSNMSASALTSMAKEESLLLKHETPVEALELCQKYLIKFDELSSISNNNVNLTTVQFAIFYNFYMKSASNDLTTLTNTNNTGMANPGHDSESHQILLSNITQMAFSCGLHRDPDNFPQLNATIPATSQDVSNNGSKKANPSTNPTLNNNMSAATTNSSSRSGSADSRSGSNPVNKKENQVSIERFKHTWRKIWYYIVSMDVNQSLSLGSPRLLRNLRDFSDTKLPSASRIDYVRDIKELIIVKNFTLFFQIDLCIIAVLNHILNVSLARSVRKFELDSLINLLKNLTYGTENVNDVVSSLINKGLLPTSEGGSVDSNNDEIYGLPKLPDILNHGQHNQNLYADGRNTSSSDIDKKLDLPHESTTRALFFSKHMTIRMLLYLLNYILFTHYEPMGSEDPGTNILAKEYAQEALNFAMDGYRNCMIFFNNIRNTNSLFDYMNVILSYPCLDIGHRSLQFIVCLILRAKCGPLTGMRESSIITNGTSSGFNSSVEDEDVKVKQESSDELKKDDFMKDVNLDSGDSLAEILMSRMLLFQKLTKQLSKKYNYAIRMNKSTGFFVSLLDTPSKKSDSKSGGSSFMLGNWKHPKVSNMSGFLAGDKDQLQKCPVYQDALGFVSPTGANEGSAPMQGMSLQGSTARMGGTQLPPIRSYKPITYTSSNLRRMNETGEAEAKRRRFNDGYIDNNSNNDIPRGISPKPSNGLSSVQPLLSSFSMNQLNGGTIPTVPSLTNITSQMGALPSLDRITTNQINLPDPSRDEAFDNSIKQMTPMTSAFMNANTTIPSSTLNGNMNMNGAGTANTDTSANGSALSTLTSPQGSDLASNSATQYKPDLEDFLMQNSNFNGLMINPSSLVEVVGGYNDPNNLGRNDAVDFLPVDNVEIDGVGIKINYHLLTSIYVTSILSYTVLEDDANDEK

Point of comparison: GTCCACCA, “PBM E-score” value -0.128. Against it:
- CATTACAC — higher, -0.0909
- GGTTCTAA — higher, 0.191
- CGATATGC — higher, 0.242
- CCTCTTTC — higher, -0.0145
- CAGTTTGG — lower, -0.204
- GCGTGAGC — higher, -0.0131
- AGTAGTCC — higher, 0.242
- CTCTAGTA — higher, 0.00181
- AATTCTTC — higher, 0.0658
- GCTCGTGA — lower, -0.155
- ACCACGAT — higher, -0.123
- CTCTAACA — lower, -0.26
- AAGTGGCG — higher, -0.0765
- CATTCTGG — lower, -0.192
- CTGAAGGA — lower, -0.21
- AATGAATG — lower, -0.131
- AGACTCAA — lower, -0.141
- CTAAAACA — lower, -0.217
- CCTCGGTC — higher, 0.298
- CATTAGAG — lower, -0.137
- CTTAGAAC — higher, -0.0393
- CATCCGGA — higher, 0.423
- ACCCACCA — lower, -0.133
- ATGTCGAA — higher, -0.117
- GGGGCGGA — higher, 0.257
- TACACTCA — lower, -0.195
- CATACACA — lower, -0.322
- AATTAAAA — higher, 0.0139
- ATTCCCGA — higher, 0.395
- ACGTTTAC — higher, -0.0752
- TGTTTTAA — higher, -0.106
- CGAATGGA — higher, 0.0263
- GATTAAAA — higher, 0.0144
- CACATGGC — lower, -0.149
- AGAAGACC — higher, 0.0374
- AGGTTCAT — higher, -0.0331
- CGTAACTC — higher, -0.0267
- CATACCAC — higher, -0.0616
- CCGCGTGC — higher, 0.0757
- TAGTGTGA — lower, -0.346
- AGTCGCGA — higher, 0.0781
- AGCTATCC — higher, 0.145
- ACAAATGG — lower, -0.241
- CTGTACTA — higher, 0.00852
- CTACACGC — lower, -0.305
- AAGTTACA — lower, -0.157
- CCTGCCGA — higher, 0.156
- TCCATAGA — higher, -0.0299
- GTACACTA — lower, -0.23
- CTATGGCC — higher, 0.0369
- CCCGAGGC — higher, 0.29
- ATGCCAAG — lower, -0.149
- CCAACTCG — higher, -0.0521
- ACGGGTTA — higher, 0.0135
- CCCTGGAA — higher, -0.11
- AGCACGGA — higher, 0.193
- ACACACCC — higher, 0.117
- TGGATAAA — higher, -0.0137
- ACGTATCC — higher, -0.0362
- CGTTGTCC — higher, 0.198
- CCCGGGAC — higher, 0.368
- TCACAAAA — higher, 0.122
- CTTGTGTC — lower, -0.149
- CCTTAAAC — higher, -0.0115
- CGGACCGA — higher, 0.423
- ACCTCGAG — higher, 0.0583
- CACCGCGG — higher, 0.252
- ACCTCACA — higher, -0.123
- CATTATTA — higher, -0.0137
- GCAAGGTA — lower, -0.289
- CAGCCCCA — higher, -0.108
- CCTATGAA — lower, -0.146
- GGATACAA — higher, 0.0871
- TGGGGACA — lower, -0.185
- AGACATTA — higher, -0.00366
- GAGTCTCA — lower, -0.179
- CAAAGGCG — lower, -0.135
- ATTGTGAA — higher, -0.0788
- ACTTACTA — higher, -0.118
- CTTTCTAA — lower, -0.155
- ATACCCCA — higher, 0.144
- AGGATCAA — higher, -0.0251
- ATAATCTG — lower, -0.205
- AAATCCCT — lower, -0.166
- ACCCCACC — higher, 0.223
- CAAGATCA — lower, -0.211
- CGACTCAG — higher, -0.012
- CGAGAGAG — higher, 0.0776
- AACATTCA — higher, -0.108
- GGCGGCCC — higher, 0.0993
- CCATTAGG — lower, -0.215
- GTCGTTGA — lower, -0.185
- CGAACGAG — higher, -0.0115
- AATACGAC — higher, -0.118
- AGCGGCTC — higher, 0.0902
- AATCTGGA — higher, -0.0478
- GGCCATAA — higher, 0.159
- CCGGATAC — higher, 0.323
- AATACATC — higher, 0.172
- AGTTCTGA — lower, -0.244
- CGCGTATC — higher, 0.0758
- AGGTAATC — higher, -0.00721
- ATTCCGGG — higher, 0.374
- AAAGGGCA — higher, -0.0877
- ATAAGACA — higher, -0.0811
- TGGGAACA — higher, -0.103
- CAACTTCA — lower, -0.167
- CTGCTTAC — lower, -0.13
- AGCCCACG — lower, -0.131
- ACAACAGC — higher, -0.124
- ACGCAAAG — higher, -0.0974
- AAAGTCCT — higher, 0.157
- GTGTCTAA — lower, -0.299
- ACGACTTG — lower, -0.182
- CATGAAGA — lower, -0.192
- AAGGGAGT — lower, -0.234
- GTCCTATA — higher, -0.0558
- AGACGAAG — lower, -0.142
- AACGTGGA — lower, -0.211
- AAATGCAA — lower, -0.279
- CGACGATA — higher, 0.14
- CTGTTCTC — higher, 0.0705
- CGCGAACC — higher, 0.202
- ATTCCTGC — higher, -0.0313
- CGACAAAG — higher, 0.0926
- AAGTTTTC — higher, 0.00231
- GAGTCTCC — higher, 0.187
- CCCTCGGC — higher, 0.268
- CAAATCTA — lower, -0.217
- GCAAACAC — higher, -0.0606
- CAGAACGC — higher, -0.00429
- GAACCCGA — higher, 0.23
- GCACTACC — higher, -0.0847
- GAATGAAC — higher, -0.00381
- AGGTAACA — lower, -0.238
- GCAATCCC — higher, 0.256
- AAGCAGCG — higher, -0.0753
- ACAGTCGA — lower, -0.261
- AAAAGAAA — higher, -0.0223
- GGGGTGAC — lower, -0.129
- CTGAGTTC — higher, -0.0173
- CTCACTCC — higher, -0.0331
- GCACGCGA — higher, 0.0534
- CTAAGTCC — higher, 0.265
- CCGCAAAC — higher, 0.17
- TACCCAAA — lower, -0.178
- CTATAGGC — higher, -0.0955
- CTTGAAAG — lower, -0.156
- CCACCGAG — higher, 0.14
- GCGCGAGC — higher, 0.0922
- ACACTATG — higher, -0.127
- ACTTGTAT — lower, -0.181
- GGGCAACC — higher, -0.0855
- AGCTCAAG — lower, -0.298
- ACGAGGTA — higher, 0.0113
- AAATATTA — higher, 0.0284
- CCGTCGAA — higher, 0.0717
- ATCAATCC — higher, 0.00642
- CCGATTGC — higher, 0.29
- CATATTTC — higher, 0.00746
- CAACAATG — higher, -0.0888
- CGTTCCCA — lower, -0.2
- CCCCATAG — higher, -0.0346
- GTGGACAC — higher, -0.102
- AGCATCAG — higher, -0.0904
- ATAGTCCA — higher, -0.114
- GACCGGCA — higher, 0.232
- GTGATGAA — lower, -0.184
- ACCTACAC — lower, -0.376
- TCCCAAGA — lower, -0.143
- GTAATGCA — higher, -0.106
